Measurements: the BET-seq Pho4 binding data (Le et al. 2018)
This is one part of the list. Values were computed here from the reads of four pooled replicates and scatter widely.

Biological target: T1, Pho4 (S. cerevisiae) (UniProt P07270)
T1 sequence: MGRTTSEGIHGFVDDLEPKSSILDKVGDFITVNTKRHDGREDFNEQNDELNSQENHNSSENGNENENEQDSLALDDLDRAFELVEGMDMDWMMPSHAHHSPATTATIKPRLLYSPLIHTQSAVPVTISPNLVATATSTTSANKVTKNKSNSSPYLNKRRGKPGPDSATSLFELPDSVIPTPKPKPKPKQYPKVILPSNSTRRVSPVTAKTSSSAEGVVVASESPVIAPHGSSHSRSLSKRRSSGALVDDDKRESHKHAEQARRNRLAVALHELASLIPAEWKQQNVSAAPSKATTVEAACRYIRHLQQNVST
Assay: relative binding free energy (BET-seq); higher = weaker binding
Conditions: reference: library average

Row | Sequence | relative binding free energy [kJ/mol]
1 | GGATTCACGTGAGGCG | 1.46
2 | ATGAACACGTGTGGCT | 0.126
3 | CGTAGCACGTGTGGCA | -0.251
4 | CACGGCACGTGTGTGT | -0.753
5 | AAGAACACGTGTAGTG | 0.0837
6 | GATTGCACGTGTTTGC | -0.251
7 | TTTGACACGTGTGAGG | 0.251
8 | AATTGCACGTGTGTAC | 0.167
9 | TTGTTCACGTGCATCG | 0.92
10 | ATGTTCACGTGTCTTT | 1.13
11 | ATTTGCACGTGGGGTA | -0.628
12 | ACGGGCACGTGGGTGG | -1.09
13 | GTATTCACGTGGTGAG | 1.21
14 | CTAGTCACGTGGGGCT | 0.377
15 | CTTTGCACGTGTGCGT | 0
16 | TTAAGCACGTGTTTGT | -0.711
17 | TAATTCACGTGCGGGA | 0.837
18 | CGGGTCACGTGGGCCT | 0.377
19 | CGTAGCACGTGAGCGG | 0.293
20 | TAGGGCACGTGGTAAC | -0.544
21 | GGGCGCACGTGGCGTA | -0.167
22 | GGGAGCACGTGAATTT | 1.21
23 | AGAGGCACGTGTTGGT | -0.335
24 | GGCGTCACGTGGTTGA | 0.753
25 | TTAATCACGTGCGGTA | 0.251

Row | Sequence | relative binding free energy [kJ/mol]
26 | AGAATCACGTGCTGTG | 0.335
27 | GTGAGCACGTGCCGTT | -0.0418
28 | AGGTCCACGTGTGGGC | 0.544
29 | TGGGGCACGTGCGGTA | -0.502
30 | GCGTTCACGTGTTATA | 0.92
31 | AATGGCACGTGGTAAA | 0.251
32 | GTTCGCACGTGCGTGG | 0.126
33 | TTGGGCACGTGAAGTT | 0.209
34 | GTCGGCACGTGGGATT | -0.377
35 | TTTCACACGTGTGATG | 1.09
36 | GCATGCACGTGTTGAT | 0.0418
37 | GGTAACACGTGTTGCA | 0.209
38 | GGTAACACGTGTCAGG | 0.628
39 | ATGTACACGTGGAATA | 0.586
40 | GTGAACACGTGGGGTT | 0.0418
41 | CCTGGCACGTGTGATG | 0.293
42 | TTCTTCACGTGATCTT | 1.17
43 | AATTTCACGTGCGTGT | 0.669
44 | CGCTACACGTGTGGGT | 0.377
45 | ATTGTCACGTGAACAG | 1.42
46 | TGAAACACGTGTGTAT | 0.837
47 | TAATTCACGTGTGCGA | 1.09
48 | GCGTGCACGTGGAGCG | 0.0837
49 | GTGAGCACGTGGTGAG | -0.628
50 | AGGGGCACGTGGTCGT | -1.67

Row | Sequence | relative binding free energy [kJ/mol]
51 | AGCGCCACGTGGGAGG | -0.837
52 | ACGTCCACGTGTGTGT | 0.209
53 | GTTGGCACGTGCGCGT | -1.13
54 | AGTATCACGTGCGATG | 0.586
55 | CCGGGCACGTGTGTGG | -0.167
56 | TTTGTCACGTGCAGCT | -0.418
57 | CGGTTCACGTGGCGGA | 0.879
58 | ACTTGCACGTGTTTGA | -0.0418
59 | GTGCGCACGTGTGGCG | 0.0837
60 | GGATTCACGTGTGATG | 1.97
61 | TGTGTCACGTGCTGGC | -0.167
62 | CTGGGCACGTGCCGGG | -1.59
63 | GAATACACGTGTTGAT | 0.753
64 | GCGTGCACGTGGGGAA | -0.669
65 | TGTGACACGTGTTTGG | 0.418
66 | GTTAGCACGTGTGGTT | 0.335
67 | AGTGTCACGTGAAATG | 1.09
68 | GGAAACACGTGGTGGG | -0.0418
69 | TTCGTCACGTGGCTTA | 0.251
70 | ATATTCACGTGACTGG | 1.42
71 | GAGCACACGTGGGGAG | -0.209
72 | CTATTCACGTGGATGG | 1.17
73 | ATGATCACGTGAGAGG | 1
74 | TGTATCACGTGACGTG | 0.586
75 | AATTGCACGTGTGAAT | 0.753

Row | Sequence | relative binding free energy [kJ/mol]
76 | GGAAACACGTGTTATG | 0.251
77 | TCTATCACGTGCGGTT | 0.711
78 | GGGATCACGTGAAGGA | 0.879
79 | AAGAACACGTGTGGGG | 0.251
80 | TCGGGCACGTGCTTGT | -0.837
81 | TATGTCACGTGATACT | 0.962
82 | CTGGCCACGTGGTATG | -0.418
83 | TGTCGCACGTGGTGTT | -1.05
84 | GGATGCACGTGAATCG | 1.67
85 | GTTAGCACGTGGTGAA | -0.251
86 | ATGGACACGTGAAGTT | 1.26
87 | TTTTGCACGTGTTACA | 0.126
88 | CTATGCACGTGTTTTG | -0.544
89 | AAATTCACGTGTGGGT | 1
90 | TTTCACACGTGGGAAG | 0
91 | CATGTCACGTGTTTAA | 0.544
92 | GGGCGCACGTGGGGAA | -0.418
93 | TTGCTCACGTGTAGTG | 0.837
94 | ATCTACACGTGAGGTT | 1.67
95 | GTCTTCACGTGGTTGC | 1.21
96 | CGTGACACGTGTATGT | -0.669
97 | GGTTGCACGTGGTAGC | 0.335
98 | GAGTTCACGTGGGGTC | 1.34
99 | CGTGCCACGTGTGTAG | -0.377
100 | GGGGTCACGTGAAGCG | 1.67

Row | Sequence | relative binding free energy [kJ/mol]
101 | AGCGGCACGTGATGTA | -0.251
102 | TGAGTCACGTGTGAAA | 0.502
103 | TGTGGCACGTGTTCAA | -0.628
104 | TAGGGCACGTGTCAAG | -0.418
105 | CGGGTCACGTGAAAGG | 1
106 | ATCTGCACGTGGTTTA | -0.293
107 | TGGTACACGTGTGTGC | -0.0418
108 | TAGGTCACGTGACGTG | 0.0418
109 | TGAGTCACGTGAAGAT | 1.42
110 | GGCTACACGTGTTGGT | 0.753
111 | TATAACACGTGGCGGG | -0.293
112 | TAGCACACGTGGAGTT | 0.544
113 | CTTTGCACGTGTTTCG | -0.167
114 | AGGGCCACGTGTTAGG | -0.711
115 | GAAGTCACGTGGTCAT | 0.586
116 | TAGTTCACGTGAATTA | 1.42
117 | AGGGCCACGTGTCGGA | -0.251
118 | GCGAGCACGTGGGAGT | -0.377
119 | CGTTACACGTGGTAGA | 0.418
120 | TAGCGCACGTGGCGGT | -1.09
121 | TGTGTCACGTGGCGGC | -0.335
122 | AATTACACGTGCTGGT | 0.46
123 | TATTTCACGTGTTGCG | 1.26
124 | TACGGCACGTGAGGGA | 0.293
125 | AAGGTCACGTGAGCGG | 1.26

Row | Sequence | relative binding free energy [kJ/mol]
126 | TTATTCACGTGATTCG | 0.92
127 | TCGTACACGTGGAGTT | 0.753
128 | AGAATCACGTGTAGTT | 0.837
129 | GGATGCACGTGTAATT | 0.669
130 | AATCTCACGTGTGGTT | 1.3
131 | AGTTTCACGTGATTCA | 1.38
132 | TTGTGCACGTGTATCG | -0.0837
133 | ATTAGCACGTGGTTAG | -0.293
134 | TGGTTCACGTGTAATT | 1.26
135 | GTCGTCACGTGGGCGT | 0.209
136 | ATTCGCACGTGGAATG | 0.251
137 | TGGGCCACGTGCGATG | -0.293
138 | GAATTCACGTGATAGG | 1.59
139 | CGGTGCACGTGAATTG | 0.92
140 | TATAACACGTGAGGGG | 0.544
141 | GTGCTCACGTGGTCTT | 0.293
142 | GGGGGCACGTGTATCA | -0.251
143 | ATTTGCACGTGTATGA | 0.837
144 | GGGTCCACGTGTATAT | 0.377
145 | TGATTCACGTGGTGGT | 1.3
146 | ATGGGCACGTGTTATC | -0.544
